Data reported in US20160002343A1 (AbbVie / Abbott, published 2016).

Assays:
[1] = target: T1, mouse Transferrin Receptor overexpressed on Hek 293 cells (mouse, UniProt Q62351); assay: cell-based MSD-ECL binding, Hek293/mTfR cells
T1 construct: whole, on cells; also called mTfR; Hek293/mTfR
Experimental: (§1) Meso-scale Discovery (MSD) Electrochemiluminescence (ECL) assays to screen for antibodies or DVD-Ig proteins that bind a desired target antigen expressed on the cell surface were performed as follows: Hek 293 cells overexpressing mouse Transferrin Receptor were added onto MSD 96-well plates (MSD Cat# L11 XB-3, lot#2290-EA). The plates which were blocked using blocking buffer (30% FBS Serum (Hyclone) in PBS) at 37° C. for 1 hour. After incubating at room temperature (RT) for 30 minutes with mild agitation, plates were washed with DPBS 3 times and Abs/DVD-Ig proteins (10,000 ng/ml) were added. After incubating for 1 hour at RT, plates were washed 3 times with DPBS and 25 μl of Goat anti-human Sulfo TAG (MSD Cat# R32AC-, Lot# W001162) at 1 μg/ml was added. Following incubation at RT for 1 hour, plates were washed and MSD read buffer was added before reading on a MSD SECTOR Imager 6000. EC50 values were obtained using Xlfit4 software package.

[2] = target: T1, mouse Transferrin Receptor …; assay: EC50 column of Table 13, taken as the cell-based mTfR binding assay
Experimental: as §1

T1 sequence (Q62351 whole entry): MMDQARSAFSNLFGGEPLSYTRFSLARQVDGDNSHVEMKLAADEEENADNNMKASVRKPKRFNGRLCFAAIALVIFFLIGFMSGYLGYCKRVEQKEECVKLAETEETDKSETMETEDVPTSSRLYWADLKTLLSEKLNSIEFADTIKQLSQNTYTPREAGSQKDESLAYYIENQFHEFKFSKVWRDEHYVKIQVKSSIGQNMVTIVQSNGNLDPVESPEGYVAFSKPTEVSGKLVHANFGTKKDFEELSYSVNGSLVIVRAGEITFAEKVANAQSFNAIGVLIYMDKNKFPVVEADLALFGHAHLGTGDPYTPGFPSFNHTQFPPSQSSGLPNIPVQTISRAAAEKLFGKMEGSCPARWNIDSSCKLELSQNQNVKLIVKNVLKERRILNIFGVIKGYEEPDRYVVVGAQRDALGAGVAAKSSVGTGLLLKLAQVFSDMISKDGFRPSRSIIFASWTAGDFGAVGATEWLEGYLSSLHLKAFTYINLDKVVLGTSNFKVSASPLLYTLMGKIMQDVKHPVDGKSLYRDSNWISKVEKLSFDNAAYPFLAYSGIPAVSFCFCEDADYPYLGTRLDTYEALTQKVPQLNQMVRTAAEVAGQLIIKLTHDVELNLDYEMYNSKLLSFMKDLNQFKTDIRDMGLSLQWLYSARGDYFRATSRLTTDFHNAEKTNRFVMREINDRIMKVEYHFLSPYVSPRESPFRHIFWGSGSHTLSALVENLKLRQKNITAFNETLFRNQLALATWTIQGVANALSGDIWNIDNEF

EC50 [1] [nM]	EC50 [2] [nM]	Binder
3.4	3.4	DVD2576 (bispecific antibody, DVD-Ig; also called Her2ssTfR) VH-VH: [about 120 residues skipped]ASTKGPEVQLVESGGGLVQPGNSLTLSCVASGFTFSNYGMHWIRQAPKKGLEWIAMIYYDSSKMNYADTVKGRFTISRDNSKNTLYLEMNSLRSEDTAMYYCAVPTSHYVVDVWGQGVSVTVSS VL-VL: [about 100 residues skipped]RTVAAPDIQMTQSPASLSASLEEIVTITCQASQDIGNWLAWYQQKPGKSPQLLIYGATSLADGVPSRFSGSRSGTQFSLKISRVQVEDIGIYYCLQAYNTPWTFGGGTKLELK
0.11	0.1	DVD2575 (bispecific antibody, DVD-Ig; also called TfRSSHer2) VH-VH: EVQLVESGGGLVQPGNSLTLSCVASGFTFSNYGMHWIRQAPKKGLEWIAMIYYDSSKMNYADTVKGRFTISRDNSKNTLYLEMNSLRSEDTAMYYCAVPTSHYVVDVWGQGVSVTVSSASTKGP[about 120 residues skipped] VL-VL: DIQMTQSPASLSASLEEIVTITCQASQDIGNWLAWYQQKPGKSPQLLIYGATSLADGVPSRFSGSRSGTQFSLKISRVQVEDIGIYYCLQAYNTPWTFGGGTKLELKRTVAAP[about 100 residues skipped]
